# From the supplement of paper PMC3334620
# Whole data set: some 33,000 sequences, median “E-score (-0.5 to 0.5)” near -0.013, cut for the highest 2% near 0.3. The list shows a part of the results.
# Biological target: T1, Msn1 (UniProt P22148)
# T1 sequence: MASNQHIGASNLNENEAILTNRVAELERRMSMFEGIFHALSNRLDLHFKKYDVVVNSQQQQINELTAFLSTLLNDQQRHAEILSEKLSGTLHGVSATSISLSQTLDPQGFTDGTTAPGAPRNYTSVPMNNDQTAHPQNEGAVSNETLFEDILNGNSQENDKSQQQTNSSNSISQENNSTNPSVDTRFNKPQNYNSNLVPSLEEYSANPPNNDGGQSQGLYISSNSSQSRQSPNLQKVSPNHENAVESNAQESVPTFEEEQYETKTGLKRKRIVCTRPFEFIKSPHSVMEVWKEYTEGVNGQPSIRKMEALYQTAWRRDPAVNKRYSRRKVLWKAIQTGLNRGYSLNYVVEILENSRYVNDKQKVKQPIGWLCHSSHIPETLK
# Assay: PBM E-score (8-mer binding enrichment) (E-score (-0.5 to 0.5)); higher = stronger / more preferred TF binding; most listed sequences are background and not binding sites
# Settings: protein concentration: 200 nM; construct: GST-full length
# Outline: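 Yeast transcription factors, full-length or as DNA-binding domains, were expressed with a GST tag using PURExpress in vitro transcription/translation. At about 100-200 nM they were applied to universal all-10-mer Agilent arrays, double-stranded by primer extension on fresh or once-stripped slides. Fluorescent anti-GST detected bound protein, and masliner normalised the scans. E-scores for ungapped eight-base words, pooled with reverse complements, came from the Universal PBM Analysis Suite.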
row,Sequence,PBM E-score
1,ACGACAGC,-0.0167
2,ATAATGTG,-0.0687
3,ATCGCATG,0.116
4,AAGATACT,-0.088
5,AATGTGGC,-0.0487
6,GCGAGCGA,0.0627
7,ACCCTCAG,0.0884
8,AGGAGTTG,-0.0847
9,CAAAGCCC,-0.0732
10,ACGTGGAC,0.172
11,ACCGGACA,0.306
12,CGGCTAGA,-0.107
13,AAGCATAT,-0.0831
14,AACCTTCA,-0.111
15,AAGTCTAC,0.0709
16,CCGCACTC,-0.065
17,ATAAATTC,0.129
18,AACAAGGT,-0.114
19,TACTCCCA,0.0828
20,CAGGCTAC,-0.111
21,CGCATATC,0.12
22,CTGGTCAC,0.0333

row,Sequence,PBM E-score
1,CCACACCC,-0.196
2,CATGATCG,-0.0605
3,GCCCCAGA,-0.165
4,CATAACTC,-0.00091
5,CAGGCAAC,-0.118
6,AGCCTACC,-0.171
7,AATATACG,-0.054
8,GCAATAAA,0.241
9,CGTGTCGA,0.0442
10,ACACGGGA,0.0215
11,AACCGACA,0.17
12,CAATTTGG,0.0773
13,CGTACCGC,-0.136
14,CTCCCACA,-0.147
15,GCTTGTCA,0.209
16,CACGTATG,-0.0734
17,CGGAATCA,0.0532
18,AAATGGAG,0.0334
19,GGCCTTCA,0.0223
20,ATCGGCAC,0.0175
21,CTATGGGC,-0.106
22,ACCACCCT,-0.22

row,Sequence,PBM E-score
1,GCCCGGGA,0.0521
2,CCCCGCGC,-0.284
3,AACACTTC,-0.0636
4,GCGCTGAC,0.0228
5,CTGCACCC,-0.108
6,CTATTTTC,0.122
7,CGAGGAAA,-0.0297
8,ATGACGGC,-0.111
9,CATCCCAG,-0.123
10,ATGGTCAA,0.175
11,CGCAGACA,0.323
12,CATAGTGA,-0.00964
13,ATATTCCA,0.212
14,CATATACA,0.249
15,GGATGCCC,-0.262
16,ACCGAGCT,-0.0607
17,CTAGGTAC,0.0565
18,ATAACTCC,-0.0864
19,AAATCCTC,-0.19
20,TCGTTGAA,0.0434
21,AAAAGTCA,0.194
22,CGCTAAAG,0.0332

row,Sequence,PBM E-score
1,AAGGTACA,0.166
2,ACTTGTGC,-0.14
3,CAAAGAGA,-0.0521
4,CAGCAGAG,-0.279
5,AAGCGTCC,-0.134
6,AGATATGC,0.0144
7,GCTGGCCC,-0.389
8,CTTTACAC,0.16
9,GGATTTGA,-0.0389
10,CGTCCCCA,0.0173
11,CCGCTATC,-0.0822
12,CTCTGCAC,-0.246
13,AATACGCC,0.104
14,AAAGCACT,-0.0831
15,GGGAATAA,0.0508
16,ATAAAAAG,0.224
17,AAAGCGAC,0.108
18,CCTATACA,0.0727
19,CCATCGCC,-0.135
20,CACGGTGC,-0.0861
